The text below walks through data of PubChem BioAssay AID1645887 (National Center for Advancing Translational Sciences (NCATS), 2021).

Where “and” joins values, the source holds several entries; their conditions need not be identical. Equal entries are not always repeated. Among all 16,000 compounds or so, about 40 (0.2%) were called active. About 1% were inconclusive and are not listed. Calls follow the shape of the dose curve; as a rule, active = well fitted activation curve with a large enough effect; inconclusive = small, poorly fitted or top-dose-only effect, or another doubt; inactive = no such curve, though single readings can be large or run the other way. This is one part of the list.
% is scaled to controls: 0 for no effect and ±100 for the full control effect.

The experiment concerns the target Rap guanine nucleotide exchange factor 4 (Homo sapiens) (UniProt Q8WZA2). Briefly: Validation qHTS for agonist of cAMP-regulated guanine nucleotide exchange factor 4 (EPAC2).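 Also: exchange makes BODIPY-GDP fluorescence drop when released from Rap1B; series mostly up to about 150 µM.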 The following applies: EPAC2 Rap1B BODIPY-GDP exchange, fluorescence; activation: stronger effect = higher value. From the text: Principle Investigator: Xiaodong Cheng Ph.D.
UniProt Q8WZA2, sequence (Q8WZA2 whole entry, looked up): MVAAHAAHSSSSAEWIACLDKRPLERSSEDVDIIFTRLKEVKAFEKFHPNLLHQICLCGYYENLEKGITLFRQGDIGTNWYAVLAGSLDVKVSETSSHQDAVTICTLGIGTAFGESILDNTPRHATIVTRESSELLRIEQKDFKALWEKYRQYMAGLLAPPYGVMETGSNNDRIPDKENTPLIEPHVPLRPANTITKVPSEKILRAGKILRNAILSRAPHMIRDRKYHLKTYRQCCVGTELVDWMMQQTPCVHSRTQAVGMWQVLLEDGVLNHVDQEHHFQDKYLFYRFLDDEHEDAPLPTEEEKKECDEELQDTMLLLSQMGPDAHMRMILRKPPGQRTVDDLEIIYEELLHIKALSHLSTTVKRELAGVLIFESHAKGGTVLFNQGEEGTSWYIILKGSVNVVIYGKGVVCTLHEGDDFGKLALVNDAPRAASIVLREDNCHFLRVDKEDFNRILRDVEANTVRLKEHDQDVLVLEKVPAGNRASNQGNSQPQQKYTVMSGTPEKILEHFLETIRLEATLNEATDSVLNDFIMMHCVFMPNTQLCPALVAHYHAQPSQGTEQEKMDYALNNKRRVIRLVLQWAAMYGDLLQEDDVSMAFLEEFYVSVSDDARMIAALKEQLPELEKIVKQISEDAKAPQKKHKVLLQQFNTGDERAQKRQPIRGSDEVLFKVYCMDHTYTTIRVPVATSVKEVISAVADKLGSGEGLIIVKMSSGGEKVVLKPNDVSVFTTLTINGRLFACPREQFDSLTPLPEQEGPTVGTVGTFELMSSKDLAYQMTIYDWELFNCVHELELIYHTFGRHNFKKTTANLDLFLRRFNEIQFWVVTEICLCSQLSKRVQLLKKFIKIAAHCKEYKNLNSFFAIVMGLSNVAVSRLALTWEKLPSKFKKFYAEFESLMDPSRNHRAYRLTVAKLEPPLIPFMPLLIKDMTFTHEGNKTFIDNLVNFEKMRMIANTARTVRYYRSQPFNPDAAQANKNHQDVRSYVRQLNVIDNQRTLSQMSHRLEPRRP
The University of Texas Medical Branch, […], TX
In multi-cellular eukaryotic organisms, the effects of cAMP are transduced by two ubiquitously-expressed intracellular cAMP receptors, the classic protein kinase A/cAMP-dependent protein kinase (PKA/cAPK) and the more recently discovered exchange protein directly activated by cAMP/cAMP-regulated guanine nucleotide exchange factor (EPAC/cAMP-GEF). Both PKA and EPAC are ubiquitously expressed in all tissues, and an increase in intracellular cAMP levels will lead to the activation of both PKA and EPAC. Therefore, careful dissections of the individual role and relative contribution of EPAC and PKA within the overall cAMP signaling in various model systems are critical for further elucidating the mechanism of cAMP signaling. To date no EPAC-specific antagonists and agonist, as well as isoform-specific agonists have been reported, and developing EPAC-specific pharmacological probes to determine the physiological functions that EPAC play in the overall cAMP-mediated signaling remains a major challenge within the research field. Furthermore, identified regulators of EPAC may lead to new mechanism-based therapeutic strategies specifically targeting the EPAC / cAMP-signaling components as EPAC has been implicated to play important roles in major human pathological conditions such as diabetes, heart disease, and cancer.
This qHTS will be used to screen the Molecular Libraries Small Molecule Repository (MLSMR) as a concentration-titration series using the NCGC unique quantitative screening (qHTS) platform to find activators for EPAC1. In addition, this assay will also be used as a counterscreen for the EPAC2 qHTS. This fluorescent based assay is developed and validated for EPAC1 that measures exchange using EPAC effector Rap1 complex with BODIPY-GDP, a GDP analog with a tethered fluorophores. Activators are identified by monitoring the change in fluorescence signal as the exchanged free BODIPY-GDP has a reduced fluorescence compared to Rap1-bound BODIPY-GDP. Increase in signal (activation) is the desired outcome for the EPAC1 agonist while no activity in this assay is desired for the EPAC2 agonist counterscreen.
[1] de Rooij, J., Zwartkruis, F. J., Verheijen, M. H., Cool, R. H., Nijman, S. M., Wittinghofer, A., and Bos, J.L. (1998) Nature 396, 474-477.
Briefly, three uL of reagents (100 nM EPAC2, 250 nM RAP1B-BODIPY-GDP, 50 uM GDP) were dispensed into a 1536-well Greiner black solid-bottom medium binding assay plate. Controls and test compounds (23 nL) were transferred to the plate via a Kalypsys pin tool equipped with a 1536-pin array. The plates were centrifuged at 1,000 rpm for 15 seconds followed by 5 minute incubation at room temperature. The assay plates were read at 5 minute intervals for 30 minutes in the ViewLux plate reader using 480nm excitation and 540nm emission filters. The results were normalized to the agonist positive control of 6.5 mM cAMP.
Regarding `COc1cccc(Nc2ncc3nc(C)c(=O)n(-c4ccccc4)c3n2)c1`, the activation was inactive: -17%. As for `COc1ccc(C(=O)N2CCOc3ccc(CN4CCN(c5ccccn5)CC4)cc3C2)o1`, the activation is inactive: -22.5%. `O=S1(=O)CCOCCCN1Cc1cccc(C(F)(F)F)c1`: the activation was inactive: -12.6%.

`CC(=O)N1CCC[C@@]2(CCN(Cc3nccs3)C2)C1`: the activation was inactive: -22.7%. Take `O=C(C[N+]1(CCc2ccccc2)CCOCC1)c1ccccc1`: the activation is inactive: -0.259%. Turning to `CNCC[C@H](Oc1ccccc1OC)c1ccccc1`, the activation was inactive: -18.3%. The value for `Fc1ccc(C(c2ccc(F)cc2)N2CCN(C/C=C\c3ccccc3)CC2)cc1` was inactive: 12.9%; that for `NC(=O)Oc1ccc(Cc2ccccc2)cc1` was inactive: -14.7%. Turning to `CCCCCCCCCCCCSCCOCCO`, the activation is inactive: -28.1%. The value for `C[C@@H](NC(=O)/C(C#N)=C/c1ccc(O)c(O)c1)c1ccccc1` was inactive: -9.76% and inactive: -16%; that for `COc1ccc(-c2nc3cnc(N4CCNCC4)nc3n(-c3ccccc3)c2=O)cc1` was inactive: -16%; that for `COc1cccc(Cn2c(=O)c(-c3ccccc3)nc3cnc(N(C)C)nc32)c1` was inactive: -20.7%. For `O=C(c1csnn1)N1CCC2(CC1)CCN(c1ccccc1)CC2`, the activation is inactive: -6.88%. As to `Cc1cccc(CNC(=O)c2cnn(-c3ncc4c(n3)-c3ccccc3CC4)c2C2CC2)n1`, the activation was inactive: -31.5%.

`CC(=O)OCC(=O)[C@@]1(O)[C@H](C)C[C@H]2[C@@H]3C[C@H](F)C4=CC(=O)C=C[C@]4(C)[C@H]3[C@@H](O)C[C@@]21C`: the activation is inactive: -9.07%.

As to `Cc1c[nH]c(=O)n(CCCN2CCN(c3ccccc3OCC(F)(F)F)CC2)c1=O`, the activation is inactive: -22.5%. As for `CCCCC/C=C\C/C=C\C/C=C\C/C=C\CCCC(=O)O[C@H](COCCCCCCCCCCCCCCCC)COP(=O)([O-])OCC[N+](C)(C)C`, the activation was inactive: -13.8%. On to `COc1ccc2c(c1)OC(C)CN(CCNC(=O)c1csc(-c3cccs3)n1)C2` (configuration not stated), for which the activation was inactive: -8.01%. Turning to `COCC(=O)N1CCC2(CC1)CN(Cc1nccs1)C2`, the activation is inactive: -20.2%. `C[C@]12CC[C@@H]3c4ccc(O)cc4C[C@@H](CCCCCCCCCS(=O)CCCC(F)(F)C(F)(F)F)[C@H]3[C@@H]1CC[C@@H]2O` (some centres not stated): the activation is inactive: -40.3% and inactive: -31.8%.

`COc1ccc2cc1Oc1ccc(cc1)C[C@H]1c3cc(c(OC)cc3CCN1C)Oc1c(OC)c(OC)cc3c1[C@H](C2)N(C)CC3`: the activation is inactive: -2.76% and inactive: -13.1% and inactive: 0.517%. Next, `O=C(c1cccc(F)c1)N1CCC[C@@]2(CCN(C(c3ccccc3)c3ccccc3)C2)C1`: inactive: -35.4%; `CCC(C)[C@H]1COCCS(=O)(=O)N1Cc1ccccc1F` (some centres not stated): inactive: -24.9%. For `O=C(C[N+]12CCCc3cccc(c31)CCC2)c1ccc(Cl)c2ccccc12`, the activation was inactive: -14.7%.

Turning to `Cc1c(C)n(CCN(C)C)c2ccc(C(=O)OCCN(C)C)cc12`, the activation is inactive: -14.9%.

`COc1cc(OC)c2c(c1)OC(c1ccccc1)CC2=O` (configuration not stated): the activation is inactive: 3.64%.

For `N#Cc1cccc(-c2ccc3ncnc(NCc4ccccc4)c3c2)c1`, the activation is inactive: -9.77%.

Turning to `CC[C@H]1OC(=O)[C@H](C)C(=O)[C@H](C)[C@@H](O[C@@H]2O[C@H](C)C[C@H](N(C)C)[C@H]2O)[C@](C)(OC)C[C@@H](C)C(=O)[C@H](C)[C@H]2N(CCCCn3cnc(-c4cccnc4)c3)C(=O)O[C@]12C`, the activation was inactive: -24.4% and inactive: -39%. For `COC(=O)c1ccc(CN2CCOc3ccc(CN4CCC(O)(c5cccnc5)CC4)cc3C2)cc1`, the activation is inactive: -2.32%. With `CCCCOc1cc(C(=O)NCCN(CC)CC)c2ccccc2n1`, the activation is inactive: -0.398% and inactive: 18.4%. With `NC(N)=NCC1COC2(CCCCC2)O1` (configuration not stated), the activation is inactive: -8.72%. In the case of `Cn1c(=O)c(-c2ccc(F)cc2)nc2cnc(Nc3ccccc3)nc21`, the activation is inactive: -3.77%. In the case of `C/C(=C(\CCOC(=O)c1ccccc1)SS/C(CCOC(=O)c1ccccc1)=C(/C)N(C=O)Cc1cnc(C)nc1N)N(C=O)Cc1cnc(C)nc1N`, the activation was inactive: 6.07%. Take `CC(=O)OCC1OC(n2cnc3c(=O)[nH]cnc32)C(OC(C)=O)C1OC(C)=O` (configuration not stated): the activation is inactive: -9.19%. As to `CC(C)C1=CC2=CC[C@@H]3[C@@](C)(C(=O)O)CCC[C@]3(C)C2CC1` (some centres not stated), the activation is inactive: -0.645%. The value for `COC(=O)[C@H](CC(C)C)NS(=O)(=O)NC(=O)OC(C)(C)C` was inactive: -11.2%; that for `CCNc1ncc2nc(C)c(=O)n(C[C@H]3CCCO3)c2n1` was inactive: 4.79%. For the compound `CCC1(C2CCN(C(=O)c3coc4c3C(=O)CCC4)CC2)NC(=O)N(CCc2scnc2C)C1=O` (configuration not stated), the activation was inactive: -9.81%. As for `COc1ccc(CN2CC[C@H]3C=CC[C@@H](C(=O)NCCc4ccccc4)[C@H]3C2=O)cc1OC`, the activation was inactive: -27.9%.

For `O=C1CCc2cc(OCCCCc3nnnn3C3CCCCC3)ccc2N1`, the activation was inactive: -17.1% and inactive: 1.43% and inactive: -12.7%.

For `CCS(=O)(=O)CCn1c([N+](=O)[O-])cnc1C`, the activation was inactive: -23.2% and inactive: -0.787%. For `Cc1noc(C)c1-c1nc(NC2CCNCC2)c2ccccc2n1`, the activation is inactive: 5.23%. On to `COc1cc(=O)n2c(c1C(=O)N(C)Cc1nccs1)CCN(Cc1ccc(F)c(F)c1)CC2`, for which the activation was inactive: -27.8%.

For `Cc1ccc(C(=O)Nc2cccc(-c3nc(CNC(=O)c4ccc5ccccc5n4)c(C)o3)c2)s1`, the activation is inactive: 1.07%. The value for `CCn1nc(C)c(CN2Cc3ccccc3OC(c3ccccc3OC)C2)c1C` (configuration not stated) was inactive: 2.55%; that for `O=C(O)c1ccccc1-c1ccc(C(F)(F)F)cc1` was inactive: -12.6%; that for `Nc1ncnc2c1ncn2CCOCP(=O)(O)O` was inactive: -10.5%. Next, `O=C(c1cccc(F)c1)N1CCC[C@@]2(CCN(Cc3ccccc3)C2)C1`: inactive: -0.52%; `CC(C)CN1CCCC2(CCN(C(=O)c3ccco3)CC2)C1`: inactive: -13.2%; `Nc1nc2c(c(=O)[nH]1)N(C=O)C(CNc1ccc(C(=O)NC(CCC(=O)O)C(=O)O)cc1)CN2` (configuration not stated): inactive: 1.39%.

Take `O=C(Nc1ccccc1)N1CCCC2(CCNCC2)C1`: the activation is inactive: -6.47%. As for `CN(C)c1ccc(-c2nc(NCc3cccnc3)c3ccccc3n2)cc1`, the activation is inactive: -1.51%. The value for `CCCCCCCC/C=C\CCCCCCCC(=O)NCCc1ccc(O)c(O)c1` was inactive: -106%; that for `Cn1cccc1C(=O)N1CCC2(CC1)CCN(c1ccc(-c3ccccc3)cc1)CC2` was inactive: -9.07%. `CN(Cc1ccco1)c1cc(-c2ccc3c(c2)OCO3)ncn1`: the activation is inactive: -14%. Consider `O=C1C(c2ccccn2)=[N+]([O-])c2ccccc21`, for which the activation was inactive: 1.59%. On to `Cc1nc(NS(=O)(=O)c2ccc(N)cc2)nc(C)c1Br`, for which the activation is inactive: -5.41%.

Consider `CC(=O)N(CC(C)C(=O)O)c1c(I)cc(I)c(N)c1I` (configuration not stated), for which the activation is inactive: -19.7%. The value for `CC(=O)OCC1=C(C(=O)O)N2C(=O)[C@@H](NC(=O)CSc3ccncc3)[C@H]2SC1` was inactive: 0.586%; that for `CCNc1ncc2nc(-c3ccc(F)cc3)c(=O)n(Cc3ccc(F)cc3)c2n1` was inactive: -1.53%. In the case of `COc1ccccc1-c1cc(=O)c2cc(O)ccc2o1`, the activation was inactive: -5.44%. Turning to `Cn1c(=O)c(CCc2ccccc2)nc2cnc(N3CCOCC3)nc21`, the activation was inactive: -1.68%. With `Cc1ccc2c(n1)Oc1ccc(C(C)C(=O)OCC(=O)N(C)C)cc1C2` (configuration not stated), the activation is inactive: -15.1% and inactive: -4.86%. Take `O=C(O)COc1ccc(OCCNC[C@@H](O)COc2ccccc2)cc1`: the activation is inactive: -11.3%.

Consider `Nc1nc2[nH]c(=O)c(=O)[nH]c2c(=O)[nH]1`, for which the activation was inactive: -3.75%.

On to `COc1ccc2[nH]cc(CCNc3ccnc(-c4ccc5c(c4)OCO5)n3)c2c1`, for which the activation is inactive: 1.31%. As to `CCCCCCCCCCCCCCC(C(=O)OC)C(O)(CC(=O)OC)C(=O)OC` (configuration not stated), the activation was inactive: -44.9%. As to `CCCCCCCCCCCCCCNCCO`, the activation was inactive: -19.2%. Next, `N#Cc1cccc(NC(=O)N2CC[C@@]3(CCCN(C(=O)c4csnn4)C3)C2)c1`: inactive: -10.4%; `COC(=O)c1c(-c2cc(OC)c(OC)c(OC)c2)c2ccnc(OCc3ncccn3)c2c(=O)n1Cc1ccnc(C)c1`: inactive: 7.25%.

As to `CCCCN1CC[C@H]2C=CC[C@@H](C(=O)N3CCN(c4ccccc4)CC3)[C@H]2C1=O`, the activation was inactive: 0.637%. As to `OC[C@H]1O[C@@H](n2cnc3c(NC4CCCCC4)ncnc32)[C@H](O)[C@@H]1O`, the activation was inactive: 9.24% and inactive: -13.9%. In the case of `O=C(Nc1ccccc1)N1CC[C@@]2(CCCN(C(=O)c3cnccn3)C2)C1`, the activation is inactive: 5.6%. With `COc1cccc(-c2nc(NCc3cnc(C)cn3)c3ccccc3n2)c1`, the activation is inactive: 4.25%. On to `COc1cc(C(=O)NC2CCCNC2)cc(OC)c1OC` (configuration not stated), for which the activation was inactive: -8.98%. On to `O=C(c1cnn(-c2nccc(-c3ccccc3F)n2)c1C1CC1)N1CCN(CCO)CC1`, for which the activation was inactive: -4.66%. As for `Oc1ccc2c(c1)OCC1(O)Cc3cc(O)c(O)cc3C21` (configuration not stated), the activation was inactive: -5.97%.

As for `C=C1CCC(O)C/C1=C\C=C1/CCCC2(C)C1CCC2C(C)CCCC(C)C` (configuration not stated), the activation was inactive: -52.7%. As to `c1cncc(-c2ccc3ncnc(NC4CCNCC4)c3c2)c1`, the activation was inactive: -1.31%. With `Cc1nc2cnc(N3CCN(C)CC3)nc2n(C2CC2)c1=O`, the activation is inactive: -11.1%.

Consider `CC(NC(=O)C1CCOCC1)c1nnc2n1CCN(Cc1ccc(F)cc1)CC2` (configuration not stated), for which the activation was inactive: -19.4%. Consider `O=C1CCN(Cc2cccnc2)CCN1[C@H](CO)Cc1ccccc1`, for which the activation is inactive: -10.9%.
